# Laboratory results taken from the supplement of paper PMC8728848.
# The other results are listed elsewhere or left out.
# B1: AT1G15820(2) (Arabidopsis thaliana), Q9LMQ2 (protein)
# chain: MAMAVSGAVLSGLGSSFLTGGKRGATALASGVGTGAQRVGRKTLIVAAAAAQPKKSWIPAVKGGGNFLDPEWLDGSLPGDFGFDPLGLGKDPAFLKWYREAELIHGRWAMAAVLGIFVGQAWSGVAWFEAGAQPDAIAPFSFGSLLGTQLLLMGWVESKRWVDFFNPDSQSVEWATPWSKTAENFANYTGDQGYPGGRFFDPLGLAGKNRDGVYEPDFEKLERLKLAEIKHSRLAMVAMLIFYFEAGQGKTPLGALGL
# Experiments:
# Experiment in all cases: glycan array binding signal (z-score within array); higher = stronger binding
# Conditions in all cases: glycan notation: IUPAC condensed, linker removed
# Neu5Ac(a2-6)Gal = biological target: Neu5Ac(a2-6)Gal
# Method in brief: (§1)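 Columns mapping to the same glycan were averaged after glycan names were converted to IUPAC-condensed notation. The data come from 3228 arrays in the Consortium for Functional Glycomics database, limited to those with an available protein sequence. Binding is reported as a within-array Z-score averaged across arrays of one protein sequence and across linkers.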
# [1] = biological target: Neu5Ac(a2-6)Gal(b1-3)GlcNAc(b1-3)[Gal(b1-4)GlcNAc(b1-6)]Gal(b1-4)Glc
# Method in brief: as §1
# Neu5Ac(a2-6)Gal(b1-4)Glc = biological target: Neu5Ac(a2-6)Gal(b1-4)Glc
# Method in brief: as §1
# [2] = biological target: Neu5Ac(a2-6)Gal(b1-4)GlcNAc
# Method in brief: as §1
# [3] = biological target: Neu5Ac(a2-6)Gal(b1-4)GlcNAc(b1-2)Man
# Method in brief: as §1
# [4] = biological target: Neu5Ac(a2-6)Gal(b1-4)GlcNAc(b1-2)Man(a1-3)Man(b1-4)GlcNAc(b1-4)GlcNAc
# Method in brief: as §1
# [5] = biological target: Neu5Ac(a2-6)Gal(b1-4)GlcNAc(b1-2)Man(a1-3)[Gal(b1-4)GlcNAc(b1-2)Man(a1-6)]Man(b1-4)GlcNAc(b1-4)GlcNAc
# Method in brief: as §1
# [6] = biological target: Neu5Ac(a2-6)Gal(b1-4)GlcNAc(b1-2)Man(a1-3)[GlcNAc(b1-2)Man(a1-6)]Man(b1-4)GlcNAc(b1-4)GlcNAc
# Method in brief: as §1
# [7] = biological target: Neu5Ac(a2-6)Gal(b1-4)GlcNAc(b1-2)Man(a1-3)[GlcNAc(b1-4)][Neu5Ac(a2-6)Gal(b1-4)GlcNAc(b1-2)Man(a1-6)]Man(b1-4)GlcNAc(b1-4)GlcNAc
# Method in brief: as §1
# [8] = biological target: Neu5Ac(a2-6)Gal(b1-4)GlcNAc(b1-2)Man(a1-3)[Man(a1-6)]Man(b1-4)GlcNAc(b1-4)GlcNAc
# Method in brief: as §1
# [9] = biological target: Neu5Ac(a2-6)Gal(b1-4)GlcNAc(b1-2)Man(a1-3)[Neu5Ac(a2-3)Gal(b1-4)GlcNAc(b1-2)Man(a1-6)]Man(b1-4)GlcNAc(b1-4)GlcNAc
# Method in brief: as §1
# [10] = biological target: Neu5Ac(a2-6)Gal(b1-4)GlcNAc(b1-2)Man(a1-3)[Neu5Ac(a2-6)Gal(b1-4)GlcNAc(b1-2)Man(a1-6)]Man(b1-4)GlcNAc(b1-4)GlcNAc
# Method in brief: as §1
# [11] = biological target: Neu5Ac(a2-6)Gal(b1-4)GlcNAc(b1-2)Man(a1-3)[Neu5Ac(a2-6)Gal(b1-4)GlcNAc(b1-2)Man(a1-6)]Man(b1-4)GlcNAc(b1-4)[Fuc(a1-6)]GlcNAc
# Method in brief: as §1
# [12] = biological target: Neu5Ac(a2-6)Gal(b1-4)GlcNAc(b1-2)Man(a1-6)Man(b1-4)GlcNAc(b1-4)GlcNAc
# Method in brief: as §1
# [13] = biological target: Neu5Ac(a2-6)Gal(b1-4)GlcNAc(b1-2)Man(a1-6)[Gal(b1-4)GlcNAc(b1-2)Man(a1-3)]Man(b1-4)GlcNAc(b1-4)GlcNAc
# Method in brief: as §1
# [14] = biological target: Neu5Ac(a2-6)Gal(b1-4)GlcNAc(b1-2)Man(a1-6)[GlcNAc(b1-2)Man(a1-3)]Man(b1-4)GlcNAc(b1-4)GlcNAc
# Method in brief: as §1
# [15] = biological target: Neu5Ac(a2-6)Gal(b1-4)GlcNAc(b1-2)Man(a1-6)[Man(a1-3)]Man(b1-4)GlcNAc(b1-4)GlcNAc
# Method in brief: as §1
# [16] = biological target: Neu5Ac(a2-6)Gal(b1-4)GlcNAc(b1-2)[Neu5Ac(a2-6)Gal(b1-4)GlcNAc(b1-4)]Man(a1-3)[GlcNAc(b1-4)][Neu5Ac(a2-6)Gal(b1-4)GlcNAc(b1-2)[Neu5Ac(a2-6)Gal(b1-4)GlcNAc(b1-6)]Man(a1-6)]Man(b1-4)GlcNAc(b1-4)GlcNAc
# Method in brief: as §1
# [17] = biological target: Neu5Ac(a2-6)Gal(b1-4)GlcNAc(b1-2)[Neu5Ac(a2-6)Gal(b1-4)GlcNAc(b1-4)]Man(a1-3)[GlcNAc(b1-4)][Neu5Ac(a2-6)Gal(b1-4)GlcNAc(b1-4)Man(a1-6)]Man(b1-4)GlcNAc(b1-4)GlcNAc
# Method in brief: as §1
# [18] = biological target: Neu5Ac(a2-6)Gal(b1-4)GlcNAc(b1-2)[Neu5Ac(a2-6)Gal(b1-4)GlcNAc(b1-6)]Man(a1-6)[Neu5Ac(a2-6)Gal(b1-4)GlcNAc(b1-2)Man(a1-3)][GlcNAc(b1-4)]Man(b1-4)GlcNAc(b1-4)GlcNAc
# Method in brief: as §1
# [19] = biological target: Neu5Ac(a2-6)Gal(b1-4)GlcNAc(b1-3)Gal(b1-3)GlcNAc
# Method in brief: as §1
# [20] = biological target: Neu5Ac(a2-6)Gal(b1-4)GlcNAc(b1-3)Gal(b1-4)GlcNAc
# Method in brief: as §1
# [21] = biological target: Neu5Ac(a2-6)Gal(b1-4)GlcNAc(b1-3)Gal(b1-4)GlcNAc(b1-2)Man(a1-3)[Neu5Ac(a2-6)Gal(b1-4)GlcNAc(b1-3)Gal(b1-4)GlcNAc(b1-2)Man(a1-6)]GalNAc
# Method in brief: as §1
# [22] = biological target: Neu5Ac(a2-6)Gal(b1-4)GlcNAc(b1-3)Gal(b1-4)GlcNAc(b1-3)Gal(b1-4)GlcNAc
# Method in brief: as §1
# [23] = biological target: Neu5Ac(a2-6)Gal(b1-4)GlcNAc(b1-3)Gal(b1-4)GlcNAc(b1-3)Gal(b1-4)GlcNAc(b1-2)Man(a1-3)[Neu5Ac(a2-6)Gal(b1-4)GlcNAc(b1-3)Gal(b1-4)GlcNAc(b1-3)Gal(b1-4)GlcNAc(b1-2)Man(a1-6)]GalNAc
# Method in brief: as §1
# [24] = biological target: Neu5Ac(a2-6)Gal(b1-4)GlcNAc(b1-3)Gal(b1-4)GlcNAc(b1-3)GalNAc
# Method in brief: as §1
# [25] = biological target: Neu5Ac(a2-6)Gal(b1-4)GlcNAc(b1-3)Gal(b1-4)GlcNAc(b1-3)[Neu5Ac(a2-6)Gal(b1-4)GlcNAc(b1-3)Gal(b1-4)GlcNAc(b1-6)]GalNAc
# Method in brief: as §1
# [26] = biological target: Neu5Ac(a2-6)Gal(b1-4)GlcNAc(b1-3)Gal(b1-4)GlcNAc(b1-6)[Gal(b1-3)]GalNAc
# Method in brief: as §1
# [27] = biological target: Neu5Ac(a2-6)Gal(b1-4)GlcNAc(b1-3)Gal(b1-4)[Fuc(a1-3)]GlcNAc(b1-3)Gal(b1-4)[Fuc(a1-3)]GlcNAc
# Method in brief: as §1
# [28] = biological target: Neu5Ac(a2-6)Gal(b1-4)GlcNAc(b1-3)GalNAc
# Method in brief: as §1
# [29] = biological target: Neu5Ac(a2-6)Gal(b1-4)GlcNAc(b1-3)[Neu5Ac(a2-6)Gal(b1-4)GlcNAc(b1-6)]GalNAc
# Method in brief: as §1
# [30] = biological target: Neu5Ac(a2-6)Gal(b1-4)GlcNAc(b1-6)GalNAc
# Method in brief: as §1
# [31] = biological target: Neu5Ac(a2-6)Gal(b1-4)GlcNAc(b1-6)[Gal(b1-3)GlcNAc(b1-3)]Gal(b1-4)Glc
# Method in brief: as §1
# [32] = biological target: Neu5Ac(a2-6)Gal(b1-4)GlcNAc(b1-6)[Gal(b1-3)]GalNAc
# Method in brief: as §1
# [33] = biological target: Neu5Ac(a2-6)Gal(b1-4)GlcNAc6S
# Method in brief: as §1
# Neu5Ac(a2-6)GalNAc = biological target: Neu5Ac(a2-6)GalNAc
# Method in brief: as §1
# [34] = biological target: Neu5Ac(a2-6)GalNAc(b1-4)GlcNAc
# Method in brief: as §1
# [35] = biological target: Neu5Ac(a2-6)GalNAc(b1-4)GlcNAc6S
# Method in brief: as §1
binder,measurement,setting,value
B1,glycan array binding signal (z-score),Neu5Ac(a2-6)Gal,0.144
same,glycan array binding signal (z-score),[1],-0.209
same,glycan array binding signal (z-score),Neu5Ac(a2-6)Gal(b1-4)Glc,0.018
same,glycan array binding signal (z-score),[2],-0.432
same,glycan array binding signal (z-score),[3],-0.257
same,glycan array binding signal (z-score),[4],-0.048
same,glycan array binding signal (z-score),[5],0.245
same,glycan array binding signal (z-score),[6],-0.006
same,glycan array binding signal (z-score),[7],0.173
same,glycan array binding signal (z-score),[8],-0.251
same,glycan array binding signal (z-score),[9],0.033
same,glycan array binding signal (z-score),[10],0.19
same,glycan array binding signal (z-score),[11],0.27
same,glycan array binding signal (z-score),[12],0.122
same,glycan array binding signal (z-score),[13],-0.468
same,glycan array binding signal (z-score),[14],-0.457
same,glycan array binding signal (z-score),[15],-0.545
same,glycan array binding signal (z-score),[16],-0.676
same,glycan array binding signal (z-score),[17],-0.209
same,glycan array binding signal (z-score),[18],-0.477
same,glycan array binding signal (z-score),[19],0.051
same,glycan array binding signal (z-score),[20],-0.197
same,glycan array binding signal (z-score),[21],-0.348
same,glycan array binding signal (z-score),[22],0.049
same,glycan array binding signal (z-score),[23],1.31
same,glycan array binding signal (z-score),[24],-0.555
same,glycan array binding signal (z-score),[25],0.328
same,glycan array binding signal (z-score),[26],-0.477
same,glycan array binding signal (z-score),[27],-0.214
same,glycan array binding signal (z-score),[28],-0.453
same,glycan array binding signal (z-score),[29],-0.288
same,glycan array binding signal (z-score),[30],-0.157
same,glycan array binding signal (z-score),[31],0.114
same,glycan array binding signal (z-score),[32],-0.529
same,glycan array binding signal (z-score),[33],-0.243
same,glycan array binding signal (z-score),Neu5Ac(a2-6)GalNAc,-0.107
same,glycan array binding signal (z-score),[34],-0.19
same,glycan array binding signal (z-score),[35],-0.363
